# Assay results as given in the supplement of paper PMC12645437, “Orthogonal IMiD-Degron Pairs Induce Selective Protein Degradation in Cells” (ACS Chemical Biology, 2025).
# The other results are listed elsewhere or left out.
# Target: no compound (DMSO)
# Test: log2 fold change of degron read counts, EGFP-low vs EGFP+ sorted cells; higher = lower degron-EGFP level without compound (poor expression or instability)
# Details: compound: DMSO control; 18 h
# 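Note: jurkat cells carrying a lentiviral library of mutant zinc finger degrons fused to EGFP plus mCherry, mCherry+ cells FACS sorted, degron abundance counted by next-generation sequencing.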
row,Sequence,log2 fold change of degron read counts
1,FMCNQCGAKFTQKGNLLRHIKL,-0.317
2,FKCPICGHNFTQKGNLLRHIKL,-0.539
3,FECEICGRMFTQKGNLLRHIKL,-1.44
4,FSCNQCGRGFTQKGNLLRHIKL,-0.284
5,FGCEICGHHFTQKGNLLRHIKL,-0.59
6,LICEICGFICTQKGNLLRHIKL,1.1
7,FTCDICGAEFTQKGNLLRHIKL,-2.32
8,FCCDQCGACFTQKGNLLRHIKL,-2.58
9,FNCPICGACFTQKGNLLRHIKL,-0.0373
10,FECEICGAGFTQKGNLLRHIKL,-1.83
11,FMCNICGAHFTQKGNLLRHIKL,-0.729
12,FKCEICGRCFTQKGNLLRHIKL,-1.32
13,FTCPICGARFTQKGNLLRHIKL,-0.0603
14,FRCPICGAFFTQKGNLLRHIKL,1.16
15,FYCNICGACFTQKGNLLRHIKL,0.00797
16,FGCDVCGAHFTQKGNLLRHIKL,-1.04
17,FGCNQCGATFTQKGNLLRHIKL,-1.13
18,FKCEICGHQFTQKGNLLRHIKL,-2.25
19,FWCEICGAEFTQKGNLLRHIKL,-1.99
20,LWCEICGFECTQKGNLLRHIKL,1.35
21,FMCDQCGAFFTQKGNLLRHIKL,-1.33
22,FACNQCGRRFTQKGNLLRHIKL,-0.548
23,FYCEICGHAFTQKGNLLRHIKL,-1.4
24,FYCPQCGATFTQKGNLLRHIKL,0.075
25,FCCNQCGHYFTQKGNLLRHIKL,0.903

row,Sequence,log2 fold change of degron read counts
1,FCCEVCGAAFTQKGNLLRHIKL,-2.41
2,FNCEICGHAFTQKGNLLRHIKL,-1.51
3,FKCPICGHCFTQKGNLLRHIKL,-0.212
4,LYCEICGFHCTQKGNLLRHIKL,0.631
5,FMCEICGRTFTQKGNLLRHIKL,-1.34
6,FHCPQCGAYFTQKGNLLRHIKL,-0.057
7,FFCNQCGHYFTQKGNLLRHIKL,1.09
8,FKCNICGAHFTQKGNLLRHIKL,-0.537
9,FCCEVCGAKFTQKGNLLRHIKL,-2.04
10,LACEICGFVCTQKGNLLRHIKL,-0.17
11,LYCNQCGFTCTQKGNLLRHIKL,0.984
12,FYCPVCGAVFTQKGNLLRHIKL,0.325
13,FTCEVCGALFTQKGNLLRHIKL,-1.44
14,FECEICGHDFTQKGNLLRHIKL,-1.02
15,FCCDVCGACFTQKGNLLRHIKL,-0.924
16,FECDVCGAWFTQKGNLLRHIKL,-1.92
17,FWCPQCGAVFTQKGNLLRHIKL,1.02
18,FVCNICGAWFTQKGNLLRHIKL,0.514
19,LYCNQCGFACTQKGNLLRHIKL,0.71
20,FSCPICGAQFTQKGNLLRHIKL,-0.221
21,FWCPQCGATFTQKGNLLRHIKL,0.379
22,FGCEICGHWFTQKGNLLRHIKL,0.918
23,FFCPICGAMFTQKGNLLRHIKL,0.296
24,FNCDICGARFTQKGNLLRHIKL,-0.835
25,FECNQCGRWFTQKGNLLRHIKL,-0.527
